Among all 220,000 compounds or so, about 5,700 (2.6%) were called active. The shares of active, inactive and inconclusive entries below differ from those in the screen. The call rests on the fitted dose curve; in most records, active means well fitted inhibition curve with a large enough effect; inconclusive means small, poorly fitted or top-dose-only effect; inactive means no such curve, though single readings can be large or run the other way. A potency beside an inconclusive call is a rough fit, not a confirmed value.
biological target: Lysine-specific demethylase 5B (Homo sapiens) (UniProt Q9UGL1); assay: Primary screen for KDM5B Histone Demethylases FDH-coupled qHTS; details: FDH-coupled NADH fluorescence (FDH is formaldehyde dehydrogenase); series mostly up to 57.7 µM; further: nearly all actives have a fitted effect of over 70% in size
Sequence of UniProt Q9UGL1 (Q9UGL1 whole entry, looked up): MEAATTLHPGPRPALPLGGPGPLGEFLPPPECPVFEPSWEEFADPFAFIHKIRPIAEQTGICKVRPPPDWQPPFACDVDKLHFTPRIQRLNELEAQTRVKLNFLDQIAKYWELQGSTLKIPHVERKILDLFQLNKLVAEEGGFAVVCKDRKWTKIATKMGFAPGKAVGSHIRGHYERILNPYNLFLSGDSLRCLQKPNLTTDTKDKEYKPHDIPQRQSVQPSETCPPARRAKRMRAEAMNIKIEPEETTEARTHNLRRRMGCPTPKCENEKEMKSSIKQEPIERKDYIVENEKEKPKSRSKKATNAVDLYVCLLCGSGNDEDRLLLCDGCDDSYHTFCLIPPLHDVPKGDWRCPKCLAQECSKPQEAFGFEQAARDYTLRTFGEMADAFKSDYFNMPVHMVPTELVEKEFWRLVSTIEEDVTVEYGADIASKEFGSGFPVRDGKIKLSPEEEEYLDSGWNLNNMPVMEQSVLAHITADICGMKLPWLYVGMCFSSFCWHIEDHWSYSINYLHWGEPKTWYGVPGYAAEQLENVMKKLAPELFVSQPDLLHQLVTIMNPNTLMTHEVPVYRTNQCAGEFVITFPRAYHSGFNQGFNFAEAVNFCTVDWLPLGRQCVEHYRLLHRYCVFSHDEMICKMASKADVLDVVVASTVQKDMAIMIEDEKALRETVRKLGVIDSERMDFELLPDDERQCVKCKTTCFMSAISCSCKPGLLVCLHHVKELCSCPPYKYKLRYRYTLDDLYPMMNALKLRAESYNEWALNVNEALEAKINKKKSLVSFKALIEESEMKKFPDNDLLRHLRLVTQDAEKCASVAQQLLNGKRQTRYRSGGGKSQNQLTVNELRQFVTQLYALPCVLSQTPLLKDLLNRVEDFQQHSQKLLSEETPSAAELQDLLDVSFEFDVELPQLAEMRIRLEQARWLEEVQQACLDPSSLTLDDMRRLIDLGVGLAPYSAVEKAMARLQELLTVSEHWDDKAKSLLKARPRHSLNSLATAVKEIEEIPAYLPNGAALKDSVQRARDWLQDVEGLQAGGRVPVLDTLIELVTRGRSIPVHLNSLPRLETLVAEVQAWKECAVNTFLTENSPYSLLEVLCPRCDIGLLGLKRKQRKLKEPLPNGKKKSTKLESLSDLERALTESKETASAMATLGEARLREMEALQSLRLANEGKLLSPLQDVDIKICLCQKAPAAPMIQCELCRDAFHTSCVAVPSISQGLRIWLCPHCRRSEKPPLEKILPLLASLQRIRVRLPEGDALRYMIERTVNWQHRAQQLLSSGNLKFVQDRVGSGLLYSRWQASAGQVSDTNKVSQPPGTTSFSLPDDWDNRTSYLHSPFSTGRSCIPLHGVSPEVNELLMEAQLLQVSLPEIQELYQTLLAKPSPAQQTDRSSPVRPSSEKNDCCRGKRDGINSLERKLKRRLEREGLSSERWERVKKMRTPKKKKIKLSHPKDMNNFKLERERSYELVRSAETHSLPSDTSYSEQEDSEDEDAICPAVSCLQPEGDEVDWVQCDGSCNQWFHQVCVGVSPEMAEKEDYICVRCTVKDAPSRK
In short: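 KDM5BΔAP (200 nM final) in 50 mM HEPES pH 7.5, 0.01% Tween-20 was preincubated 10 min at RT with compound over a concentration range. Substrate mix (H3K4me3 12.5 µM, α-KG 25 µM, Fe²⁺, ascorbate, NAD⁺, FDH) was added, and NADH fluorescence change over 30 min gave dose-response curves.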
Potency means the concentration at half of the fitted maximal effect; tags describe the fitted curve by direction and shape.

Structure (SMILES)	Potency
CCc1ccc2oc(-c3ccc(C)c(N)c3)nc2c1	inconclusive: 10 µM [inhibitor, partial curve, poor fit]
CCCCOc1ccc(NC(=O)COc2ccccc2OC)c2cccnc12	inconclusive: 39.8 µM [inhibitor, single point]
COc1ccccc1CNC(=O)c1cc(C)nc2ccccc12	inactive
CC(=O)Nc1ccc(/C=C(/C#N)C(=O)C(C)(C)C)cc1	inconclusive: 20 µM [inhibitor, single point]
COc1ccccc1-c1cc2c(ccn2C)c(C(=O)NCCc2cnc[nH]2)n1	active: 39.8 µM
CCCOC(=O)c1nc2ccccc2nc1NCc1ccccc1OC	inconclusive: 17.8 µM [inhibitor, partial curve, poor fit]
O=C(NC(NC(=O)c1ccccc1)c1cccc(F)c1)c1ccccc1	inactive
O=[N+]([O-])c1ccc(F)cc1OCc1cc(Cl)c2c(c1)OCCO2	inactive
CS(=O)(=O)N1CCC(Oc2ccccc2C(=O)N2CCC[C@H]2CO)CC1	inconclusive: 28.2 µM [inhibitor, partial curve, poor fit]
COc1ccccc1/C=C/C=N/n1c(-c2ccc(Cl)cc2Cl)n[nH]c1=S	inconclusive: 11.2 µM [inhibitor, partial curve, poor fit]
N#Cc1ccc(C(=O)NC2CCSc3c(F)cccc32)cc1 (stereo not drawn)	inactive
CCNc1cc(N2CCC(CCC(=O)NCCN3CCCCCC3)CC2)ncn1	inconclusive: 7.94 µM [inhibitor, partial curve]
O=C(O)C1CCN(C2CCOCC2)CC1	inactive
COc1cc(-c2cc(OC)c3c(C)oc(C)c3c(=O)c2)ccc1OC(=O)c1cccc(Cl)c1	inconclusive: 2.51 µM [inhibitor, partial curve, poor fit]
Cc1ccccc1C(=O)N1CCC[C@H]1c1nc(-c2ccc(F)cc2)no1	inactive
COc1ccc(NC(=O)CCCN2C(=O)COc3ccc(C)cc32)cc1OC	inconclusive: 14.1 µM [inhibitor, partial curve, poor fit]
COc1ccc(NC(=O)Cn2ncc3ccccc3c2=O)cc1	inactive
O=C(c1ccno1)N1CCN2C(=O)N(Cc3cccnc3)C[C@H]2C1	inconclusive: 50.1 µM [inhibitor, partial curve, poor fit]
Oc1ccccc1CN1CCNc2cc(-c3ccccc3)ncc2C1	inconclusive: 31.6 µM [inhibitor, partial curve]
CC(C)c1ccc(OCc2cc(=O)n3c(-c4ccccc4)csc3n2)cc1	inconclusive: 25.1 µM [inhibitor, partial curve, poor fit]
COC(=O)c1[nH]c2ccc(C)cc2c1NC(=O)C(C)N1CCCC(C)(C)C1 (stereo not drawn)	inconclusive: 17.8 µM [inhibitor, partial curve, poor fit]
O=C(c1ccco1)N1CCC(c2nc(C3CCOCC3)no2)C1 (stereo not drawn)	inconclusive: 14.1 µM [inhibitor, partial curve]
Cc1cc(C)c(NC(=O)CSc2nnc(C)n2C)c(Cl)c1	inactive

Structure (SMILES)	Potency
O=S(=O)(c1ccc(Cl)cc1)c1nnn2c1nc(NCc1ccc(F)cc1)c1ccccc12	inconclusive: 63.1 µM [inhibitor, partial curve, poor fit]
CCN1c2cc(C(=O)NCc3ccc(C(C)C)cc3)ccc2C(=O)N2CCCCCC21 (stereo not drawn)	inconclusive: 35.5 µM [inhibitor, partial curve, poor fit]
Cn1nc(C(=O)NN2C(=O)NC(C)(c3ccccc3)C2=O)c2ccccc2c1=O (stereo not drawn)	inactive
CCc1cccc(NC(=O)N2CCCC(c3noc(COc4ccccc4F)n3)C2)c1 (stereo not drawn)	inconclusive: 35.5 µM [inhibitor, single point]
CCOC(=O)C(=O)N1CCN(c2nc(C)c3c(c2C#N)CCCC3)CC1	inconclusive: 20 µM [inhibitor, partial curve, poor fit]
O=C(c1cccc2[nH]ccc12)N1CCC(N2C(=O)C(OCC3CC3)C23CCOCC3)CC1 (stereo not drawn)	inconclusive: 31.6 µM [inhibitor, partial curve, poor fit]
Cc1ccc(-c2cc(N3CCCN(C(=O)c4ccco4)CC3)n[nH]2)cc1C	inconclusive: 10 µM [inhibitor, partial curve]
O=C(O)C1=NOC2CN(Cc3nc4ccccc4s3)CC12 (stereo not drawn)	inconclusive: 100 µM [inhibitor, partial curve]
CN1c2cc(C(N)=O)ccc2C(=O)N2CCCCC21 (stereo not drawn)	inconclusive: 25.1 µM [inhibitor, partial curve, poor fit]
CCCc1ccc(-c2cc(C(=O)N3CCN(c4ccccn4)CC3)c3ccccc3n2)cc1	inconclusive: 39.8 µM [inhibitor, single point]
CN(C)c1ncc2c(n1)C(C)(C(=O)Nc1ccc(Cl)cc1)CCC2 (stereo not drawn)	active: 35.5 µM
Cc1ccc2[nH]c(=O)c(-c3noc(CC(C)C)n3)cc2c1	inconclusive: 25.1 µM [inhibitor, partial curve, poor fit]
COc1ccccc1CC(=O)N[C@@H]1CN(C)C[C@H]1CN(C)C	inconclusive: 31.6 µM [inhibitor, partial curve, poor fit]
Cc1cccc(OCC(=O)Nc2ccc3nc(Nc4cccc(Cl)c4)cc(C)c3c2)c1	inconclusive: 25.1 µM [inhibitor, partial curve, poor fit]
C=C(C)COc1ccc2c(C)c(CC(=O)NCCc3ccc(S(N)(=O)=O)cc3)c(=O)oc2c1	inconclusive: 20 µM [inhibitor, partial curve, poor fit]
CS(=O)(=O)N1CCC(C2CCN(C(=O)Cc3ccccc3F)C2)CC1 (stereo not drawn)	inactive
Cc1cc(SCC(=O)NN2C(=O)NC3(CCC(C)CC3)C2=O)nc2ccccc12 (stereo not drawn)	inactive
COc1cccc(-c2nn(-c3ccccc3)c(OC(C)=O)c2-c2ccc(NC(=O)C3CCCC3)cc2)c1	active: 12.6 µM
CCOCCCn1c(=N)c(C(=O)NCC2CCCO2)cc2c(=O)n3cc(C)ccc3nc21 (stereo not drawn)	inconclusive: 3.16 µM [inhibitor, full curve, poor fit]
O=C1CC(c2cccc(F)c2F)c2c(n3c(nc4ccccc43)[nH]c2=O)N1 (stereo not drawn)	inactive
O=C1NCCN2CC3(CCN(S(=O)(=O)Cc4ccccc4)CC3)CC12 (stereo not drawn)	inconclusive: 25.1 µM [inhibitor, partial curve]
COc1cc(CNCCc2ccc(Cl)cc2)ccc1OCC(O)CN1CCOCC1 (stereo not drawn)	inconclusive: 5.01 µM [inhibitor, single point]
Cc1c(OCC(=O)Nc2ccc(Cl)cc2)c(=O)ccn1CCO	inactive

Structure (SMILES)	Potency
Cc1ccsc1C(=O)N1CCCC(Cc2nc(C3CCOCC3)no2)C1 (stereo not drawn)	inconclusive: 28.2 µM [inhibitor, single point]
COc1c(Br)c(CC2CC(c3ccc(F)cc3)=NO2)c(OC)c2c1OCO2 (stereo not drawn)	inactive
Cc1ccc(-c2nc3cccnc3s2)cc1NC(=O)Cc1ccccc1	inconclusive: 1.78 µM [inhibitor, partial curve, poor fit]
Cc1nccc(-c2cccc(NC(=O)c3cc[n+]([O-])cc3)c2)n1	inactive
Cc1ccc(S(=O)(=O)N2CCN(C(=O)[C@H](Cc3ccccc3)NC(=O)c3ccco3)CC2)cc1C	inactive
COc1ccc(OC)c(C(=O)CC2(O)C(=O)N(C)c3ccc(Br)cc32)c1 (stereo not drawn)	inactive
CC(c1cccs1)N(C)CC(O)COc1ccc(-c2ccccc2)cc1 (stereo not drawn)	inactive
CC(C)c1ccc(Nc2ncnc3c2c(-c2ccccc2)cn3-c2ccccc2)cc1	inconclusive: 15.8 µM [inhibitor, partial curve, poor fit]
O=C(c1ccc2c(c1)N(C(=O)c1ccccc1)CC2)N1CCN(c2cccc(Cl)c2)CC1	inconclusive: 31.6 µM [inhibitor, partial curve, poor fit]
CCCOc1ccc(-c2nc(C#N)c(NCc3ccco3)o2)cc1	inconclusive: 1.78 µM [inhibitor, full curve, poor fit]
CNC(=O)c1ccc2c(c1)NC(=O)CS2	inactive
Cn1c(=O)c2c(-c3ccccc3Br)n(CCc3ccccc3)cc2n(C)c1=O	inconclusive: 2.51 µM [inhibitor, partial curve, poor fit]
Cc1ccc(-c2ncc(C(=O)N3CCC(Nc4ncccn4)CC3)c(=O)[nH]2)cc1	inconclusive: 20 µM [inhibitor, partial curve]
COc1ccc2[nH]c(C(=O)N3CCC4(CC3)c3nc[nH]c3CCN4C)cc2c1	active: 28.2 µM
O=C(NC[C@H]1Cn2cc(-c3ccccc3)nc2CO1)Nc1ccc(F)cc1	inconclusive: 39.8 µM [inhibitor, partial curve, poor fit]
CCOc1ccc(NC(=O)Cn2c(C)ccc(NC(=O)Nc3cccc(C)c3)c2=O)cc1	inconclusive: 28.2 µM [inhibitor, partial curve, poor fit]
COc1cccc(C(=O)N2CCC3(CCNCC3)CC2)c1C	inactive
COc1ccc(/C=C/C(=O)O)cc1Br	inactive
O=C(CCC1NC(=O)N(CCc2c[nH]c3ccc(F)cc23)C1=O)Nc1ccccc1 (stereo not drawn)	inactive
COc1ccc(Cl)cc1NC(=O)c1c(NCc2ccc(C)o2)sc2c1CCCC2	inconclusive: 17.8 µM [inhibitor, single point]
Cc1ccc(CN(Cc2ccco2)C(=O)c2oc3c(C)c(C)ccc3c2C)cc1	inconclusive: 7.94 µM [inhibitor, partial curve, poor fit]
O=C(c1noc(-c2ccc(F)cc2)n1)N1CCN(c2ccccc2Cl)CC1	inconclusive: 35.5 µM [inhibitor, single point]

From PubChem BioAssay AID1347165 (National Center for Advancing Translational Sciences (NCATS), 2019)
